# The supplement of paper PMC8728848
# Some of the results follow.
# B1: PX14379A-bvu-539-28-539 (Bacteroides vulgatus) (protein)
# chain: EPYSEIIEEDYVPTEADEIALLATTYSQLRFVMDWYGLFDLQEESGDVIVTPTRPNGWDDGGTYKQMHKHTWDNQQGQPQSIWDYCYKGIANANKILKRADEGFFTEESKPKVVAEVKGVRALWYSILCDTHGNIPIQTSFSEEVPVQSTRKQVFDFIINELKEVMPNLPTEVNKSTYGRLTQWGAKCLMARMYLNAGVYTGTPMWNECLEQCNDIINSGLFSLETNYTDIFKTENSGCVETIFAIPYDEVYNEGDNNGPVFGAHMKFLSSNSRKVFNMQTTPWGGSAANPQFINSYDPDDMRLKYTWLQGDQYSPDGVLITTFPNKLPSIYKTDTDDGYRVGKYEIKVGAKSLLSNDFPYFRYTEVLLMKAECLLRLGQNETEAAHIVSQIRERAFRESAHPEKATVDAAWLKGDTHINYGTLDEKGQIDDAGNTEVVELGGLYDEWGWEFAAEARRRTDMIRFGTYQKKSWFNHTPTANDLNGNSILFPIHLDHLNTNPNLQQNPGYAGK
# Legend:
# Test in all cases: glycan array binding signal (z-score within array); higher = stronger binding
# Details in all cases: glycan notation: IUPAC condensed, linker removed
# [1] = molecular target: Gal(b1-4)GlcNAc(b1-2)[Gal(b1-4)GlcNAc(b1-4)]Man(a1-3)[GlcNAc(b1-4)][Gal(b1-4)GlcNAc(b1-2)Man(a1-6)]Man(b1-4)GlcNAc(b1-4)GlcNAc
# Summary of the method: (§1)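 The binding signal is a Z-score computed within each array and averaged over linkers. Arrays of the same protein sequence at different concentrations or buffers were also averaged together. Data originate from 3228 arrays in the Consortium for Functional Glycomics database, kept only where the protein sequence was available.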
# [2] = molecular target: Gal(b1-4)GlcNAc(b1-2)[Gal(b1-4)GlcNAc(b1-4)]Man(a1-3)[GlcNAc(b1-4)][Gal(b1-4)GlcNAc(b1-2)[Gal(b1-4)GlcNAc(b1-6)]Man(a1-6)]Man(b1-4)GlcNAc(b1-4)GlcNAc
# Summary of the method: as §1
# [3] = molecular target: Gal(b1-4)GlcNAc(b1-2)[Gal(b1-4)GlcNAc(b1-6)]Man(a1-6)[Gal(b1-4)GlcNAc(b1-2)Man(a1-3)]Man(b1-4)GlcNAc(b1-4)GlcNAc
# Summary of the method: as §1
# [4] = molecular target: Gal(b1-4)GlcNAc(b1-2)[Gal(b1-4)GlcNAc(b1-6)]Man(a1-6)[Gal(b1-4)GlcNAc(b1-2)Man(a1-3)]Man(b1-4)GlcNAc(b1-4)[Fuc(a1-6)]GlcNAc
# Summary of the method: as §1
# [5] = molecular target: Gal(b1-4)GlcNAc(b1-2)[Gal(b1-4)GlcNAc(b1-6)]Man(a1-6)[GlcNAc(b1-4)][Gal(b1-4)GlcNAc(b1-2)Man(a1-3)]Man(b1-4)GlcNAc(b1-4)GlcNAc
# Summary of the method: as §1
# [6] = molecular target: Gal(b1-4)GlcNAc(b1-2)[Gal(b1-4)GlcNAc(b1-6)]Man(a1-6)[GlcNAc(b1-4)][Gal(b1-4)GlcNAc(b1-2)[Gal(b1-4)GlcNAc(b1-4)]Man(a1-3)]Man(b1-4)GlcNAc(b1-4)[Fuc(a1-6)]GlcNAc
# Summary of the method: as §1
# [7] = molecular target: Gal(b1-4)GlcNAc(b1-3)Gal(b1-3)GalNAc
# Summary of the method: as §1
# [8] = molecular target: Gal(b1-4)GlcNAc(b1-3)Gal(b1-3)GlcNAc
# Summary of the method: as §1
# [9] = molecular target: Gal(b1-4)GlcNAc(b1-3)Gal(b1-4)Glc
# Summary of the method: as §1
# [10] = molecular target: Gal(b1-4)GlcNAc(b1-3)Gal(b1-4)GlcNAc
# Summary of the method: as §1
# [11] = molecular target: Gal(b1-4)GlcNAc(b1-3)Gal(b1-4)GlcNAc(b1-2)Man(a1-3)[Gal(b1-4)GlcNAc(b1-3)Gal(b1-4)GlcNAc(b1-2)Man(a1-6)]Man(b1-4)GlcNAc(b1-4)GlcNAc
# Summary of the method: as §1
# [12] = molecular target: Gal(b1-4)GlcNAc(b1-3)Gal(b1-4)GlcNAc(b1-2)Man(a1-3)[Gal(b1-4)GlcNAc(b1-3)Gal(b1-4)GlcNAc(b1-2)Man(a1-6)]Man(b1-4)GlcNAc(b1-4)[Fuc(a1-6)]GlcNAc
# Summary of the method: as §1
# [13] = molecular target: Gal(b1-4)GlcNAc(b1-3)Gal(b1-4)GlcNAc(b1-2)[Gal(b1-4)GlcNAc(b1-3)Gal(b1-4)GlcNAc(b1-6)]Man(a1-6)[Gal(b1-4)GlcNAc(b1-3)Gal(b1-4)GlcNAc(b1-2)Man(a1-3)]Man(b1-4)GlcNAc(b1-4)GlcNAc
# Summary of the method: as §1
# [14] = molecular target: Gal(b1-4)GlcNAc(b1-3)Gal(b1-4)GlcNAc(b1-2)[Gal(b1-4)GlcNAc(b1-3)Gal(b1-4)GlcNAc(b1-6)]Man(a1-6)[Gal(b1-4)GlcNAc(b1-3)Gal(b1-4)GlcNAc(b1-2)Man(a1-3)]Man(b1-4)GlcNAc(b1-4)[Fuc(a1-6)]GlcNAc
# Summary of the method: as §1
# [15] = molecular target: Gal(b1-4)GlcNAc(b1-3)Gal(b1-4)GlcNAc(b1-3)Gal(b1-4)GlcNAc
# Summary of the method: as §1
# [16] = molecular target: Gal(b1-4)GlcNAc(b1-3)Gal(b1-4)GlcNAc(b1-3)Gal(b1-4)GlcNAc(b1-2)Man(a1-3)[Gal(b1-4)GlcNAc(b1-3)Gal(b1-4)GlcNAc(b1-3)Gal(b1-4)GlcNAc(b1-2)Man(a1-6)]Man(b1-4)GlcNAc(b1-4)GlcNAc
# Summary of the method: as §1
# [17] = molecular target: Gal(b1-4)GlcNAc(b1-3)Gal(b1-4)GlcNAc(b1-3)Gal(b1-4)GlcNAc(b1-2)Man(a1-3)[Gal(b1-4)GlcNAc(b1-3)Gal(b1-4)GlcNAc(b1-3)Gal(b1-4)GlcNAc(b1-2)Man(a1-6)]Man(b1-4)GlcNAc(b1-4)[Fuc(a1-6)]GlcNAc
# Summary of the method: as §1
# [18] = molecular target: Gal(b1-4)GlcNAc(b1-3)Gal(b1-4)GlcNAc(b1-3)Gal(b1-4)GlcNAc(b1-2)[Gal(b1-4)GlcNAc(b1-3)Gal(b1-4)GlcNAc(b1-3)Gal(b1-4)GlcNAc(b1-6)]Man(a1-6)[Gal(b1-4)GlcNAc(b1-3)Gal(b1-4)GlcNAc(b1-3)Gal(b1-4)GlcNAc(b1-2)Man(a1-3)]Man(b1-4)GlcNAc(b1-4)[Fuc(a1-6)]GlcNAc
# Summary of the method: as §1
# [19] = molecular target: Gal(b1-4)GlcNAc(b1-3)Gal(b1-4)GlcNAc(b1-3)Gal(b1-4)GlcNAc(b1-3)Gal(b1-4)GlcNAc(b1-2)Man(a1-3)[Gal(b1-4)GlcNAc(b1-3)Gal(b1-4)GlcNAc(b1-3)Gal(b1-4)GlcNAc(b1-3)Gal(b1-4)GlcNAc(b1-2)Man(a1-6)]Man(b1-4)GlcNAc(b1-4)GlcNAc
# Summary of the method: as §1
binder,measurement,setting,value
B1,glycan array binding signal (z-score),[1],-0.391
same,glycan array binding signal (z-score),[2],0.351
same,glycan array binding signal (z-score),[3],1.36
same,glycan array binding signal (z-score),[4],-0.043
same,glycan array binding signal (z-score),[5],-0.433
same,glycan array binding signal (z-score),[6],-0.223
same,glycan array binding signal (z-score),[7],-0.333
same,glycan array binding signal (z-score),[8],-0.157
same,glycan array binding signal (z-score),[9],-0.017
same,glycan array binding signal (z-score),[10],-0.301
same,glycan array binding signal (z-score),[11],1.8
same,glycan array binding signal (z-score),[12],0.327
same,glycan array binding signal (z-score),[13],-0.245
same,glycan array binding signal (z-score),[14],7.27
same,glycan array binding signal (z-score),[15],-0.252
same,glycan array binding signal (z-score),[16],0.726
same,glycan array binding signal (z-score),[17],1.02
same,glycan array binding signal (z-score),[18],1.51
same,glycan array binding signal (z-score),[19],1.17
